Our source for the binding signal (log2 normalized intensity) values is paper PMC10726135.

This is one part of the list. At the low end of the ranking, values are background and their order means little. The protein was read in a cell extract, so binding may be indirect.

The test addresses T1, HNF4alpha2 (COS-7 nuclear extract) (UniProt P41235).
T1 sequence: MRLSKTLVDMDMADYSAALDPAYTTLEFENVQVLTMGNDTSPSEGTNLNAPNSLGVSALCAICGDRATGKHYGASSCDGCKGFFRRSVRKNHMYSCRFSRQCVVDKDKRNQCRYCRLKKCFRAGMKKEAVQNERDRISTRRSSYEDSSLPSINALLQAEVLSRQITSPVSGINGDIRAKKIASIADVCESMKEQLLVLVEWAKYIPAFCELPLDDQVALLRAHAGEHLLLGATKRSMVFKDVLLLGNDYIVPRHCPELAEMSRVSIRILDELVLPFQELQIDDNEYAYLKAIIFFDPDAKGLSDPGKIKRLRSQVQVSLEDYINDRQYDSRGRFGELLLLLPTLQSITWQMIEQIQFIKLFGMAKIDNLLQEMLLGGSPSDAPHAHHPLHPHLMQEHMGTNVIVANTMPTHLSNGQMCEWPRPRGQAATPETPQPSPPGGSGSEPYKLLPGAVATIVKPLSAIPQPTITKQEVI
In words: protein-binding microarray. Conditions: COS-7 nuclear extract on double-stranded Agilent 4x180k PBM; binding buffer, salt, pH and temperature not given; high values mean tight binding; double strand, one strand shown; sequences stand for … in …GCCTAGGGAGATTAGAGTATCGGTCGA
Consider CCAAGAGCGGAAAGAAAGGCCTTTCATACG, for which the binding signal (log2 normalized intensity) was -1.09.
The figure for GCGGCGGAACGCGCGGGCAGGTTGCCCTTT is 4.4; for TGGAGGCCAAAAGTAGGGAGGAGGGGAGGG it is -1.04.
Regarding GCTCCGCCGGACCGGCCAAACTGGTTTCTC, the binding signal (log2 normalized intensity) was -1.07.
To ACCAAACAAAATTAATGTGCCTGCCACATC belongs -1.19; to CCAGATGAGATAGGAGGTCAGCACAAGATA, -1.24; to GAGAGTTTTCCTTGGCTGTGCTGCCCTTTG, 3.6.
The figure for ACCAGATAAGGCAGTGGTTTGCAGTTGGAA is 1.21; for GTAACCTTTGGCCAATTGCATTTTTGTTCC it is 2.66.
To TCGTGGCCCCTGGGTCGTTGGTGCTCCCCC belongs 4.21; to TGGGCTCTGACCCGAAGGGTAGGAGAAGCT, -1.16.
For the sequence GGAATGACCTTTGATATTTGTGCCTAGTGG, the binding signal (log2 normalized intensity) came out at 4.8.
The figure for ATCGGAGAACGTTCCAAACCTACACAGACC is -1.22.
AGGCATCTCTGGGGGTCAGAAGTCCAACAT: the binding signal (log2 normalized intensity) was 5.1.
To TGATCTTAAGATGATATAGCTGTTCATTAG belongs 1.12; to AGAAATAGCCTGAAAATGTTTGCCGACCTC, 1.5; to TTGACCACAGTTATCTCCCCAGCTTACAAT, 2.06.
The figure for CTTTGTATAAGCCGTGCAAAGTTCATCCCT is 3.24.
To ATTTCACAAATGAGGGGACAAAGTTCGTGG belongs 3.66; to AAGGCCCAGCTAGAAGCAGTGGGACAAAGG, 0.86; to ATCGCACGAGCAAGTTTATTCCAAGACTCG, -1.02.
Take CTGGCAAATGTGAATGGACTCTGCCCTTAG: the binding signal (log2 normalized intensity) was determined as 6.01.
Turning to TGTAATACACAAGCAATAGGGTTCGGTGCA, the binding signal (log2 normalized intensity) was -0.927.
To GTACGGAGGACAGCCACCCGTGCTTGGAAT belongs -0.853; to CTCCCTCCCCACCCGGTGTGCGTGGGTGGG, 2.04; to GCTCAGCTGGTTGCCCCTTTGACCCTCGGG, 6.11.
Turning to CATTCAGCAACTGGGTTCAGTTACGGGGTG, the binding signal (log2 normalized intensity) came out at 0.99.
On to TACTTTTCAAATGTAAGAATTTAAACCAAA, for which the binding signal (log2 normalized intensity) stood at 0.0182.
As for TTCAAAAGAGAGAGTAGCTCCAAAAGGTGG, the binding signal (log2 normalized intensity) was -1.11.
The figure for TATGGCAACCTTTGTCCTGCTGAGGAGGCA is 2.36; for TCCCCACCATTAACCCTACAGTCCTGCCAC it is 2.12; for ATCCTGTCTCCTTTAACCTTCATTCATATC it is 1.79.
To TTAGCTTCCTCCCTTGGAATGTGACCTTAG belongs 4.12; to TGGACTTTGTGGGCCAAAAGCAGCCATTAA, 0.36; to TTTCAAGCAATGTTTGCCTCTCAGCTCATT, -1.17.
With AATGATCAAAGAGACACAATCCCTAAGGCC, the binding signal (log2 normalized intensity) is -1.09.
The figure for AAGAGCAAAGGACCAAAAGATATTTGCTGC is -1.27; for ACTTCTGTCTCCAGAAATCAACCTTTGATC it is 7.84; for TCTACTTGTTAGTAATCGATGTCCATGAAG it is 1.95.
To AGCAAAGGTCATCCTGGGCTACCGATATGA belongs 0.737; to ATCTTTGACCTCTCCAGGGTCCTTGCCTTA, 1.9; to TCTTGGCTGCTTTAGACATGAGATAGCATT, 0.558.
TCAGAGGCTAAACCTAGCCCCCTTTCCCTT: the binding signal (log2 normalized intensity) is 3.42.
With GGCCACTCCGTTTGCTATGGCCTTTCTTCA, the binding signal (log2 normalized intensity) is -0.817.
The figure for AGGCCATCCACATTCTTTGGCTCAGGGCCT is -1.15.
Regarding CCTGGCCGAGGTTGCCCAGCTATTAAATGG, the binding signal (log2 normalized intensity) is -0.945.
The figure for TTCACCGGAGATTTACATTCCAGAGTAAAC is -1.08; for TATCTTCGTATAGAAACAAGACAGAATGAT it is -0.775.
To ACTGAATATGTTCGGGAGACATGTGGCCTT belongs 1.94; to GCAGGGCTTTTCCATTGACAGTCCAAGGAC, -1.16.
The figure for GATAAGTCCCTAAGAGGAATAGTCAGATTG is -1.24; for TTGCCTGATAGCATCGTGGGTATTTGGGGA it is 0.618.
As for TTACTGGACTTGATCCATTCTACCCCTGTG, the binding signal (log2 normalized intensity) came out at 2.73.
With TAGCTCACAGGAAAGGAGACTAAAGGTCAA, the binding signal (log2 normalized intensity) is 4.08.
To CAGCCCAGCATACCATTCCCACCCCATTTC belongs 3.52; to ACACAGTTGCCTATGCCCTTTGAAATTCTG, 1.68; to AAAAGCCTTTTGAAGAAACCAACCCTGCCA, -1.14.
The figure for TTCCTGTTAGATAGAGGAGTCAAGCAAACA is -0.768.
Regarding AACCCCTAGGTCAGCAGTTGTTCAAAGTCC, the binding signal (log2 normalized intensity) came out at 4.6.
To ACTGTATCTTATCAGAAACACACCCTTGGG belongs -1.1.
The figure for AGTGCATAGCTAAGCACCCAGATAAGTTAT is -1.09; for TTGGATTTTAAAAGCCCTCAAATACTCTGA it is -1.14; for CGGTGAGGGATTGTTTAGGTACAAAGTCCA it is 8.35.
As for TCTGCTCTTGAACCAGAGAATCTCTCATTT, the binding signal (log2 normalized intensity) was -1.2.
To TCAAGACAGGTGAGAGAGCTGCATTGCTTC belongs -1.05.
To TTACTTATGTTGTCCGGACACCAACCTTTG belongs 2.54.
To TCTATCTCCCTACCCTCACCCCTGCTGGGG belongs 1.92.
In the case of GTCACGTGGGTCCAGGGTCACGTGCCGCTG, the binding signal (log2 normalized intensity) is 0.405.
Regarding CTGAACCTTGTCCCACTCTTGGGTCAACAT, the binding signal (log2 normalized intensity) stood at 2.03.
With CTACAGCCTGATGTTGACAGAGCTCCCATC, the binding signal (log2 normalized intensity) is -1.11.
The figure for AAAGTCAACACTTAGGGTGGATACTTTGAC is 0.0169; for CACAGTGTTATTTGCTGAGGTGGGGGAGGT it is 0.53.
The figure for AGTACCTCTCAAAAATCTCACTCACCCTAA is -0.279.
